From PubChem BioAssay (Tox21)
“And” between values parts separate entries of the source, which are not always exact repeats. Identical values can stand only once. The shares of active, inactive and inconclusive entries below differ from those in the screen. For some of these results: A potency beside an inconclusive call is a rough fit, not a confirmed value. The source made the active and inactive calls. Unless noted, calls come from the whole dose curve; as a rule, active = well fitted curve in the direction sought with a large enough effect in the repeat runs; inconclusive = weak or mixed curves; inactive = no such curve, though single readings can be large; an effect the other way counts as inactive or inconclusive.

How the values were obtained:
[1] = target: Estrogen receptor (Homo sapiens) (UniProt P03372); experiment: qHTS assay to identify small molecule antagonists of the estrogen receptor alpha (ER-alpha) signaling pathway (AID 743069; active = well fitted curve in the direction sought with a large enough effect in the signal ratio in the repeat runs, not every such curve was filed as active; inconclusive = weak or mixed curves, or effect the other way; inactive = no such curve, though single readings can be large or run the other way; the % refers to the signal ratio; note: potency is the fitted concentration of half-maximal effect); details: HEK293 ER-alpha-UAS-bla, beta-lactamase ratio, antagonist mode; activity, negative = inhibition: at 69.4 µM (top of the series) unless noted
Sequence of UniProt P03372 (P03372 whole entry, looked up): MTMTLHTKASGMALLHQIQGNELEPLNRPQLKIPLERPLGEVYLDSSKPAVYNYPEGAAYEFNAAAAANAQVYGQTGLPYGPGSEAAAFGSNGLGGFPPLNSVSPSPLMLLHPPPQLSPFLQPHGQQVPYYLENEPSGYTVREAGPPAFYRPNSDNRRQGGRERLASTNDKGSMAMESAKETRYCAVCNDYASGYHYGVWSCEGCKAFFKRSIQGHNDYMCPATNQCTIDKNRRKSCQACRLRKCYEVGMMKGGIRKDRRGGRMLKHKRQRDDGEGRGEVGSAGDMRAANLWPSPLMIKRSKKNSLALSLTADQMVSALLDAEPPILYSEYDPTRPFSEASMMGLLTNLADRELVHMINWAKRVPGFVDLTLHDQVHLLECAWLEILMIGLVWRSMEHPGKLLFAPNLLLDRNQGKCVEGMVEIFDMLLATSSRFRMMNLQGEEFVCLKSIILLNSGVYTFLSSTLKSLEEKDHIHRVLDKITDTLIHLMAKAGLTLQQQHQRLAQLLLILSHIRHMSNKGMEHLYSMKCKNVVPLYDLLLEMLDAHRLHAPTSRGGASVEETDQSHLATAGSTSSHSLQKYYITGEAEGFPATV
Summary of the method: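 Antagonist mode: compounds in DMSO were co-added with 17beta-estradiol to ER-alpha-bla HEK293 cells (2% charcoal-stripped serum) and left 18 h at 37C. Reporter inhibition was measured as FRET fluorescence after 2 h LiveBLAzer substrate at room temperature.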

[2] = target: Peroxisome proliferator-activated receptor delta (Homo sapiens) (UniProt Q03181); experiment: qHTS assay to identify small molecule agonists of the peroxisome proliferator-activated receptor delta (PPARd) signaling pathway (AID 743212; calls by dose curve;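 note: HEK293H cells with PPARd UAS beta-lactamase reporter GeneBLAzer system; % is set by controls: 0 for no effect and ±100 for the full control effect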); details: HEK293H PPARd-UAS-bla, beta-lactamase FRET ratio, 17 h; activation: at 62.6 µM (top of the series) unless noted
Sequence of UniProt Q03181 (Q03181 whole entry, looked up): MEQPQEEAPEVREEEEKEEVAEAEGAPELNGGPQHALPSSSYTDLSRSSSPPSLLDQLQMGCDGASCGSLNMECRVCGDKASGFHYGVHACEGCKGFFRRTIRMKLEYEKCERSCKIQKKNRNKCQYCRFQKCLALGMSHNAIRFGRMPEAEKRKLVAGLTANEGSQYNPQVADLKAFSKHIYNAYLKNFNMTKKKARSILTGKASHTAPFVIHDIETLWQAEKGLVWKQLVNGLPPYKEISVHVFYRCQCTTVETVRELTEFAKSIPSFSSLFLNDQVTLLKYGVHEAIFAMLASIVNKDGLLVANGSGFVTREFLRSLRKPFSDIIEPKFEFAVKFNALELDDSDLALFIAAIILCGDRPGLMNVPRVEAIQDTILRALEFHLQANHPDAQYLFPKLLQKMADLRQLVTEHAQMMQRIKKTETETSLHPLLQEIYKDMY
Summary of the method: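 Beta-lactamase reporter readout: a ratiometric FRET signal from the LiveBLAzer substrate after 2 h at room temperature. Compound exposure at 37 °C in PPARδ-bla HEK293H cells driven by an upstream activator sequence.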

[3] = A CellTox Green Cytotoxicity Assay to monitor cytotoxicity in HepG2 cells - 24 hour (AID 1224878); note: nearly all actives have a fitted effect of over 45% in size; note: potency is the fitted concentration of half-maximal effect
Summary of the method: (§1)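 Measurements at 0, 8, 16, 24, 32 and 40 h of treatment captured CellTox Green fluorescence in HepG2 cells that had been co-plated with reagent and preincubated 5 h at 37 C/5% CO2.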

[4] = target: Acetylcholinesterase (Homo sapiens) (UniProt P22303); experiment: Acetylcholinesterase (AChE) small molecule antagonists: fluorescence cell-based qHTS assay (AID 1347398; calls by dose curve; note: nearly all actives have a fitted effect of over 50% in size; note: potency is the fitted concentration of half-maximal effect); details: Potency: AChE activity
Sequence of UniProt P22303 (P22303 whole entry, looked up): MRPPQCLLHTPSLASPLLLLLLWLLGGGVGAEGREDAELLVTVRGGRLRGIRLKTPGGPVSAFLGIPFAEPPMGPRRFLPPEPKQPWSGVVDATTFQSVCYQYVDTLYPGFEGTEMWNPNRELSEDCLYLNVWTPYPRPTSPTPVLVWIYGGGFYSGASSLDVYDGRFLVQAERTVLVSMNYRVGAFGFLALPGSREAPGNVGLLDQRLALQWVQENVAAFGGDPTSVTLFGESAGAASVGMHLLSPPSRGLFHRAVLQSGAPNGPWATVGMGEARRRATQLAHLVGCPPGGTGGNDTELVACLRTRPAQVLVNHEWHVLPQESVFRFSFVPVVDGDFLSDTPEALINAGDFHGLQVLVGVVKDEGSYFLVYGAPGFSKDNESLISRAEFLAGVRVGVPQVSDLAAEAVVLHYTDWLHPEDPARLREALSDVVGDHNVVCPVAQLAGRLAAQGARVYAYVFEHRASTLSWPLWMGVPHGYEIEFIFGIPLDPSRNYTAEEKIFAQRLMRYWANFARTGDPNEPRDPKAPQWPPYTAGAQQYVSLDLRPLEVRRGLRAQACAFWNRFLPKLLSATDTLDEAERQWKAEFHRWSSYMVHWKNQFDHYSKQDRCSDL
Summary of the method: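 Cellular AChE activity read as thiocholine from acetylthiocholine hydrolysis, detected by Thiolite Green fluorescence at 490/520 nm after 40 min at room temperature. Compounds were pre-incubated 30 min at 37 C on adherent SH-SY5Y cells.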

[5] = qHTS assay to identify small molecule antagonists of the thyroid receptor (TR) signaling pathway (AID 743065); note: nearly all actives have a fitted effect of over 55% in size; note: potency is the fitted concentration of half-maximal effect
Summary of the method: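 Antagonism measured as loss of luciferase signal in GH3 cells stably carrying a TRE-luciferase reporter, co-treated with compound and T3 (1 nM final) for 23.5 h at 37 C. Viability was read in the same well by CellTiter-Fluor.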

[6] = target: Nuclear receptor subfamily 1 group I member 3 (Homo sapiens) (UniProt Q14994); experiment: qHTS assay to identify small molecule antagonists of the constitutive androstane receptor (CAR) signaling pathway (AID 1224838);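 note: HepG2 cells stably expressing hCAR with CYP2B6 luciferase reporter stimulated by CITCO; nearly all actives have a fitted effect of over 40% in size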; note: potency is the fitted concentration of half-maximal effect; for activity, negative = inhibition: % is set by controls: 0 for no effect and ±100 for the full control effect
Sequence of UniProt Q14994 (Q14994 whole entry, looked up): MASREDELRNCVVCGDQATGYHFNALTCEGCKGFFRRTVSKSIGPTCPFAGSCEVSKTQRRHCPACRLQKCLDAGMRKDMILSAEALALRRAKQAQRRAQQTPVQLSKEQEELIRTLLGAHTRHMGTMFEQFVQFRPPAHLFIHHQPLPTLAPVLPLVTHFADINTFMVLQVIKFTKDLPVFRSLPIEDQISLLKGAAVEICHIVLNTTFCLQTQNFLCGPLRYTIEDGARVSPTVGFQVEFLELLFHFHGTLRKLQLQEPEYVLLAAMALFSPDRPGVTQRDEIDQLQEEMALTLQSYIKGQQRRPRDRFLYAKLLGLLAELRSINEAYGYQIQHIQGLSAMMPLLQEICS
Summary of the method: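 Human hepatoma HepG2 cells expressing hCAR and a CYP2B6 promoter (2.2 kb) luciferase construct; compound titration (15 points) with 50 nM CITCO final, 24 h at 37 C/5% CO2; luminescence via ONE-Glo after 30 min at room temperature.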

[7] = qHTS RealTime-Glo MT Cell Viability Assay in HEK293 cells - 40 hour (AID 1224874); details: RealTime-Glo luminescence; max response: stronger effect = lower value; note: nearly all actives have a fitted effect of over 50% in size; note: potency is the fitted concentration of half-maximal effect; for max response: % is set by controls: 0 for no effect and ±100 for the full control effect
Summary of the method: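 HEK293 + NanoLuc + prosubstrate, 600 cells/well; 5 h, 37 C/5% CO2; compound 23 nL in DMSO by pintool; 37 C; luminescence read at 0, 8, 16, 24, 32 and 40 h time points.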

[8] = qHTS assay to identify small molecule agonists of the TGF-beta/Smad signaling pathway (AID 1346859; active = well fitted activation curve with a large enough effect in the signal ratio in the repeat runs, not every such curve was filed as active; inconclusive = weak or mixed curves; the % refers to the signal ratio; note: potency is the fitted concentration of half-maximal effect; for activation: % is set by controls: 0 for no effect and ±100 for the full control effect)
Summary of the method: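 Each well held 4,000 SBE-bla HEK 293T cells incubated overnight before compound addition; 5 hr later the cleavable FRET substrate went on for 2 hr at room temperature, and fluorescence was read at two emissions.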

[9] = target: Voltage-gated inwardly rectifying potassium channel KCNH2 (Homo sapiens) (UniProt Q12809); experiment: Human Ether-a-go-go-Related Gene (hERG) channel small molecule antagonists: fluorescence cell-based qHTS assay (AID 1671200); note: nearly all actives have a fitted effect of over 50% in size; note: potency is the fitted concentration of half-maximal effect
Sequence of UniProt Q12809 (Q12809 whole entry, looked up): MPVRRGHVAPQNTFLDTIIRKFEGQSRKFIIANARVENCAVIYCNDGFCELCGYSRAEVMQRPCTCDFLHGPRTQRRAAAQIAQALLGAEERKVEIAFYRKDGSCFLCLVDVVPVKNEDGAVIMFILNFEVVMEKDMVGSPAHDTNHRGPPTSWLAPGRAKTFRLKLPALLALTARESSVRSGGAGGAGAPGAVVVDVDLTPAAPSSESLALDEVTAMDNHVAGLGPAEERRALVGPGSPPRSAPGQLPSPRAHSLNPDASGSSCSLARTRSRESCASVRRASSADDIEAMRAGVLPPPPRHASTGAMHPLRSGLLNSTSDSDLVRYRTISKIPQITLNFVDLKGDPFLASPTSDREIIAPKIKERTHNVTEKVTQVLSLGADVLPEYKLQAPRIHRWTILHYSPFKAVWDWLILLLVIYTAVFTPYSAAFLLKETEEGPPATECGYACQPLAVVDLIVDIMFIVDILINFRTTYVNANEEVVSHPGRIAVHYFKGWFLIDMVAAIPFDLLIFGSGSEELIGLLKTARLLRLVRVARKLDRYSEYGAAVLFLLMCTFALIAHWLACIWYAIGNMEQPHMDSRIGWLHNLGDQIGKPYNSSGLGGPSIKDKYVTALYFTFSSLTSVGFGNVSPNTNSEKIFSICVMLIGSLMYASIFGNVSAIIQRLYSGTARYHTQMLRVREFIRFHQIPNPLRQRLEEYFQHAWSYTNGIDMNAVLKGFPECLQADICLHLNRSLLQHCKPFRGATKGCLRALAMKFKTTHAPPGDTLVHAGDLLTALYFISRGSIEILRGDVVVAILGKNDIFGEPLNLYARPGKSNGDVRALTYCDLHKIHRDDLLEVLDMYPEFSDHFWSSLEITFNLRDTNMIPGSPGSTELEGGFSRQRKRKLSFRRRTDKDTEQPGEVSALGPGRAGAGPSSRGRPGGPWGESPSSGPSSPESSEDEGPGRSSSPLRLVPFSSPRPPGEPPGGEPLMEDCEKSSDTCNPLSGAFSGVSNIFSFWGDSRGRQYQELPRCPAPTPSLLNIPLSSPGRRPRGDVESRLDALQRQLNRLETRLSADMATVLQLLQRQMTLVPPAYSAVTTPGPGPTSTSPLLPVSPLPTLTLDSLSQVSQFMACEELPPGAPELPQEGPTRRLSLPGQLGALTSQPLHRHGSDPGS
Summary of the method: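 Kinetic two-minute fluorescence traces, sampled at 1 s, were collected following thallium stimulus of U2OS cells (1000 per well) that had been cultured overnight at 37 C and loaded with FluxOR II.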

[10] = qHTS assay to identify small molecule antagonists of the estrogen related receptor (ERR) signaling pathway from Tox21 library (AID 1224848); note: potency is the fitted concentration of half-maximal effect; nearly all actives have a fitted effect of over 50% in size
Summary of the method: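 Luciferase luminescence (ONE-Glo, 30 min room temperature) was the read-out. Cells of the NTP-supplied ERR line, 2,000 per well, were given 6 h at 37 C before compound addition in DMSO and 18 h exposure at 37 C.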

[11] = A CellTox Green Cytotoxicity Assay to monitor cytotoxicity in HEK293 cells - 32 hour (AID 1224881); note: potency is the fitted concentration of half-maximal effect; nearly all actives have a fitted effect of over 40% in size
Summary of the method: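 Tox21 screen in HEK293: membrane-impermeant cyanine dye fluoresces on binding dead-cell DNA; compound pinned 5 h post-seeding, plates held at 37 C, signal read repeatedly through 40 h.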

[12] = qHTS assay to identify small molecule antagonists of the androgen receptor (AR) signaling pathway - cell viability counter screen (AID 743033; note: nearly all actives have a fitted effect of over 45% in size; note: potency is the fitted concentration of half-maximal effect)
[13] = qHTS assay to identify small molecule agonists of the constitutive androstane receptor (CAR) signaling pathway - cell viability counter screen (AID 1224836); note: nearly all actives have a fitted effect of over 45% in size; note: potency is the fitted concentration of half-maximal effect
Summary of the method: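 Using CellTiter-Fluor, viability of HepG2 cells harbouring hCAR and CYP2B6-2.2kb was measured following 23 h incubation with a 15-concentration compound series plus PK11195 (0.75 uM final).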

[14] = qHTS assay for small molecule activators of the heat shock response signaling pathway - cell viability counter screen (AID 743209); details: HSE-bla HeLa viability, CellTiter-Glo luminescence, 5 h; activity change, negative = cytotoxicity: at 62.6 µM (top of the series); note: nearly all actives have a fitted effect of over 50% in size; note: potency is the fitted concentration of half-maximal effect
Summary of the method: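 To flag cytotoxic compounds, HSE-bla HeLa cells plated at 1500 cells/well were dosed for 5 h at 37 C, followed by the reporter FRET read and then CellTiter-Glo, with luminescence recorded 30 min after reagent addition.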

[15] = A CellTox Green Cytotoxicity Assay to monitor cytotoxicity in HepG2 cells - 32 hour (AID 1224883); note: nearly all actives have a fitted effect of over 50% in size; note: potency is the fitted concentration of half-maximal effect
Summary of the method: as §1

[16] = target: Cytochrome P450 3A4 (Homo sapiens) (UniProt P08684); experiment: Cytochrome P450 Family 3 Subfamily A Member 4 (CYP3A4) small molecule antagonists: luciferase reporter qHTS assay (AID 1671201)
Sequence of UniProt P08684 (P08684 whole entry, looked up): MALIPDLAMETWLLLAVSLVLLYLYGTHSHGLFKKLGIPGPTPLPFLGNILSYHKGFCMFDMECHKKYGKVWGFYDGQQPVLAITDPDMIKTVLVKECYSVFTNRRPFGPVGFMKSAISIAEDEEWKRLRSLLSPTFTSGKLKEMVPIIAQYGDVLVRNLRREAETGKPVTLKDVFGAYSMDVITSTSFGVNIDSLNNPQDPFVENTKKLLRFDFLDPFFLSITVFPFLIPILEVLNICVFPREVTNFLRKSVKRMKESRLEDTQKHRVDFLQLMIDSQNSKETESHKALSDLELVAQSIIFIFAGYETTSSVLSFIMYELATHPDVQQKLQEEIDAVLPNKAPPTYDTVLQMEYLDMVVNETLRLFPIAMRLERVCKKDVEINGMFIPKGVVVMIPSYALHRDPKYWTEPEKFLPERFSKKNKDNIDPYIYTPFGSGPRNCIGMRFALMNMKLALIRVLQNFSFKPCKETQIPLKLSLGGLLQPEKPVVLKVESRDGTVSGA
Summary of the method: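 Proluciferin-to-luciferin conversion by CYP3A4, NADPH-regenerated, 1 h RT; luminescence read as RLU. Ketoconazole as control.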

[17] = qHTS assay to identify small molecule antagonists of the retinoic acid receptor (RAR) signaling pathway (AID 1159552; note: nearly all actives have a fitted effect of over 50% in size; note: potency is the fitted concentration of half-maximal effect)
Summary of the method: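 C3RL4 RARE-luc cells, overnight plating; retinol 1 uM final added right after compound; 6 hr 37 C; luciferase read at 30 min RT.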

[18] = qHTS assay to identify small molecule antagonists of the constitutive androstane receptor (CAR) signaling pathway - cell viability counter screen (AID 1224837); note: potency is the fitted concentration of half-maximal effect; nearly all actives have a fitted effect of over 45% in size
Summary of the method: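 To flag cytotoxic false antagonists, HepG2 hCAR/CYP2B6-2.2kb cells were treated 23 hr with 15-concentration compound series and 50 nM CITCO at 37 C/5% CO2; CellTiter-Fluor fluorescence was the measured end point.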

[19] = qHTS assay to identify small molecule antagonists of the estrogen related receptor signaling pathway with the pleiotropic PPARgamma coactivator (PGC) from Tox21 10K library - cell viability counter screen (AID 1224840; active = well fitted cell-killing curve with a large enough effect in the repeat runs, not every such curve was filed as active; inconclusive = weak or mixed curves, or effect the other way; inactive = no such curve, though single readings can be large or run the other way; note: potency is the fitted concentration of half-maximal effect; nearly all actives have a fitted effect of over 40% in size)
Summary of the method: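 Seeded PGC/ERR cells (2,000/well, 6 h, 37 C/5% CO2) get compound by pin tool; 17.5 h incubation at 37 C; CellTiter-Fluor added, 30 min, fluorescence measured.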

[20] = qHTS assay to identify small molecule agonists of the estrogen receptor alpha (ER-alpha) signaling pathway in the presence of an antagonist - cell viability counter screen (AID 1259386);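 note: cells exposed to compounds for 22 h at 37 °C before the viability read; nearly all actives have a fitted effect of over 30% in size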; note: potency is the fitted concentration of half-maximal effect
Summary of the method: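 The test measures whether compounds kill ER-alpha reporter cells (VM7Luc4E2) under antagonist co-treatment (ICI-182,780, 10.0nM). Fluorescence from CellTiter-Fluor is read after a 22hr exposure.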
Tags give direction and shape of the fitted curve or compound fluorescence and quenching.

SMILES: O=C(NC(=O)c1cc(F)c(F)cc1Cl)Nc1cc(F)ccc1N1CCC(C(=O)O)CC1
- Potency [1]: inconclusive: 9.52 µM [activator, partial curve]
- Potency [2]: inactive
- Potency [3]: inconclusive: 9.52 µM [activator, single point]
- Potency [4]: inactive

SMILES: CCOP(=S)(OCC)SCSC(C)(C)C
- Potency [5]: inconclusive: 48.6 µM [inhibitor, single point]

SMILES: Cn1[nH]nnc1=S
- Potency [6]: inactive
- max response [7]: inactive: 4.93%
- Potency [8]: inactive
- Potency [9]: inactive

SMILES: CCOP(=S)(Oc1cnc(C(C)(C)C)nc1)OC(C)C (stereo unspecified)
- Potency [2]: inactive
- Potency [10]: inconclusive: 61.1 µM [inhibitor, partial curve, poor fit]
- Potency [11]: inconclusive: 61.6 µM [activator, single point]
- Potency [9]: inconclusive: 27.5 µM [inhibitor, partial curve]

SMILES: CCCSP(=S)(OCC)Oc1ccc(Cl)cc1Cl (stereo unspecified)
- Potency [12]: inactive
- Potency [5]: inconclusive: 68.6 µM [inhibitor, single point]
- Potency [13]: inactive

SMILES: CC(Cc1ccccc1)NCc1ccccc1Cl (stereo unspecified)
- Potency [12]: inactive
- Potency [5]: inactive
- Potency [11]: inconclusive: 26.8 µM [activator, single point]

SMILES: O=C1OC(CCN2CCCCC2)OC1(c1ccccc1)c1ccccc1 (stereo unspecified)
- Potency [14]: inconclusive: 33.5 µM [cytotoxic]
- Potency [6]: inactive

SMILES: BrCCCCCCBr
- Potency [15]: inactive
- Potency [4]: inconclusive: 71 µM [inhibitor, single point]

SMILES: CCC/C(=N\OCC)C1=C(O)CC(CC(C)SCC)CC1=O (stereo unspecified)
- Potency [12]: inconclusive: 55.3 µM [cytotoxic, partial curve, poor fit]

SMILES: CNNC
- Potency [4]: inactive
- Potency [16]: inconclusive: 92.4 µM [inhibitor, partial curve, poor fit]

SMILES: CCCCOCCOC(C)=O
- Potency [14]: inconclusive: 61.6 µM [rising, partial curve, poor fit]
- Potency [13]: inactive

SMILES: CNC(=O)O/N=C(\C)C(C)S(C)(=O)=O (stereo unspecified)
- Potency [17]: inconclusive: 631 µM [inhibitor, single point]
- Potency [3]: inconclusive: 501 µM [activator, single point]
- Potency [15]: inconclusive: 501 µM [activator, single point]
- Potency [4]: active: 447 µM

SMILES: O=C(Cc1ccccc1)OCc1ccccc1
- activity, negative = inhibition [1]: inconclusive: -43.7% [at 79.1 µM]
- Potency [11]: inconclusive: 49.3 µM [activator, single point]

SMILES: O=[N+]([O-])c1cc([As](=O)(O)O)ccc1O
- Potency [12]: inconclusive: 0.0014 µM [cytotoxic]
- Potency [18]: inconclusive: 54.1 µM [cytotoxic, partial curve]
- Potency [19]: inconclusive: 54.1 µM [cytotoxic, partial curve, poor fit]
- Potency [10]: inconclusive: 68.1 µM [inhibitor, single point]
- Potency [15]: inactive
- Potency [20]: inconclusive: 60.7 µM [cytotoxic, partial curve] and inconclusive: 30.6 µM [cytotoxic, partial curve] and inconclusive: 33.5 µM [cytotoxic, single point]

SMILES: CCCC(C)(COC(N)=O)COC(N)=O
- Potency [16]: inconclusive: 59.9 µM [inhibitor, partial curve, poor fit]

SMILES: ClCC(Cl)CCl
- Potency [20]: inactive

SMILES: CN1C(=S)CN=C(c2ccccc2)c2cc(Cl)ccc21
- Potency [5]: inconclusive: 29.8 µM [inhibitor, partial curve]
- activity, negative = inhibition [1]: inconclusive: -22.8%
- Potency [7]: inconclusive: 8.49 µM [cytotoxic, partial curve, poor fit]
- Potency [11]: inconclusive: 5.35 µM [activator, single point]

SMILES: N#Cc1ccccc1N
- Potency [17]: inconclusive: 2.17 µM [inhibitor, full curve, poor fit]
- Potency [10]: inconclusive: 0.686 µM [inhibitor, full curve, poor fit]

SMILES: CC(C)(C)NCC(O)c1cc(Cl)c(N)c(C(F)(F)F)c1 (stereo unspecified)
- Potency [13]: inconclusive: 11.9 µM [cytotoxic, partial curve]
- Potency [18]: inconclusive: 13.3 µM [cytotoxic, partial curve]
- Potency [6]: inconclusive: 2.37 µM [inhibitor, full curve]
- Potency [15]: inactive
- Potency [20]: inconclusive: 26.6 µM [cytotoxic, partial curve]

SMILES: O=P(OCCCl)(OCCCl)OCCCl
- Potency [17]: inconclusive: 60.6 µM [inhibitor]
- Potency [3]: inactive

SMILES: CNC(=O)O/N=C/C(C)(C)S(C)=O (stereo unspecified)
- Potency [15]: inactive
- Potency [8]: inconclusive: 62.5 µM [rising, partial curve, poor fit]
- Potency [4]: active: 57.2 nM and active: 35.4 nM

SMILES: C=CC(=O)OCCCCCC(C)C
- Potency [14]: inactive
- Potency [17]: inactive
- Potency [13]: inconclusive: 76.9 µM [cytotoxic, single point]
